# Results taken from PubChem BioAssay AID588855 (National Center for Advancing Translational Sciences (NCATS), 2011).
# Values joined by “and” are separate entries in the source; they are usually repeats but may differ in a detail not shown here. Equal entries are not always repeated. The campaign covered roughly 410,000 compounds. About 5,000 (1.2%) were called active. The shares of active, inactive and inconclusive entries below differ from those in the screen. Calls come from the whole dose curve; as a rule, active = well fitted inhibition curve with a large enough effect; inconclusive = small, poorly fitted or top-dose-only effect; inactive = no such curve, though single readings can be large or run the other way. A potency beside an inconclusive call is a rough fit, not a confirmed value.
# Experiment: qHTS for Inhibitors of TGF-b; note: nearly all actives have a fitted effect of over 65% in size
# Conditions: HepG2 CAGA-GFP TGF-b/SMAD3 reporter, GFP fluorescence, 18 h, TGF-beta stimulated, 500 pg/mL final; series mostly up to 46.1 µM; activity, negative = inhibition: at the top concentration
# Procedure, shortened: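 HEPG2 CAGA-GFP, 1000 cells/well; 2 h settle, 37 C; cpd via pin tool; TGF-b 500 pg/mL final; 18 h, 37 C; GFP imaging ex488/em500-530; %Activity normalised to -TGF-b and +DMSO controls; CRC fit, curve class.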
# % is set by controls: 0 for no effect and ±100 for the full control effect; potency is the fitted concentration of half-maximal effect; tags give direction and shape of the fitted curve.
Structure (SMILES),"activity, negative = inhibition",Potency
O=C(Nc1ccccc1)C1CC(=O)N(Cc2ccccc2)C1 (stereo not drawn),inactive: -2.95%,–
COC(=O)N/N=C/c1cc(Cl)cc(Cl)c1OCc1ccccc1F,–,"inconclusive: 35.5 µM [inhibitor, single point]"
C=CCn1c(SCC(=O)NCC(c2ccccc2)N(C)C)nnc1C1CCCCC1 (stereo not drawn),inactive: 23.9%,–
COc1ccc(-n2nc(C(=O)NCC(=O)NC3CCCCCC3)c3ccccc3c2=O)cc1OC,inactive: -18.8%,–
CCn1cc(C(=O)N(C)Cc2ccccc2)c(=O)c2cc(S(=O)(=O)N3CCCCC3)ccc21,–,"inconclusive: 4.47 µM [inhibitor, full curve]"
Cc1cccc(N2CCN(C(=O)Cn3nc(C)c4sc5ccccc5c4c3=O)CC2C)c1 (stereo not drawn),inactive: -26.3%,–
Oc1c(Br)cc(Br)cc1/C=N/n1c(-c2ccccc2)n[nH]c1=S,–,"inconclusive: 25.1 µM [inhibitor, single point]"
CC(C)C[C@@H](CO)N(Cc1ccccc1)S(=O)(=O)N(Cc1ccccc1)[C@@H](CO)CC(C)C,–,active: 10 µM
COc1ccccc1-c1nnc(NC(=O)CCS(=O)(=O)c2ccc(F)cc2)o1,–,"inconclusive: 35.5 µM [inhibitor, single point]"
CC1=NN(C(=O)c2ccccc2)C(O)(c2ccc(Br)cc2)C1 (stereo not drawn),–,"inconclusive: 8.91 µM [inhibitor, partial curve]"
CC(C)[C@@H]1NC(=O)c2cc([N+](=O)[O-])cc(I)c2OCC[C@@H](C(N)=O)NC(=O)[C@H](CCC(=O)O)NC1=O,–,"inconclusive: 3.55 µM [inhibitor, single point]"
CC12CC3CC(C)(C1)CC(C(=O)N1CCCC1)(C3)C2,inactive: -1.87%,–
CC1(C)C(C=C(Cl)Cl)C1C(=O)N/N=C/c1ccccc1F (stereo not drawn),inactive: -28.2%,–
CC(=O)c1ccc(NC(=O)CN2C(=O)/C(=C/C=C/c3ccccc3)SC2=S)cc1,–,"inconclusive: 6.31 µM [inhibitor, single point]"
CCOC(=O)c1c(CSc2ccc(C)cc2)n(C)c2cc(Br)c(O)c(CN(C)C)c12,–,"inconclusive: 35.5 µM [inhibitor, single point]"
COc1cc(NC(=O)c2ccc(C)cc2)c(OC)cc1NC(=O)CN1CCCCC1,inactive: -5.05%,–
COc1ccc(N=C2NC(=O)/C(=C\c3ccco3)S2)cc1,inactive: -7.56%,–
CCCCC(=O)NC(c1ccc([N+](=O)[O-])cc1)c1c(O)ccc2ccccc12 (stereo not drawn),–,"inconclusive: 10 µM [inhibitor, partial curve]"
Cc1ccc(S(=O)(=O)N2CCC(C(=O)Nc3cc(C(F)(F)F)ccc3N3CCOCC3)CC2)cc1C,–,"inconclusive: 0.126 µM [inhibitor, full curve, poor fit]"
O=C1[C@H](Cc2ccccc2)NCCCC[C@@H](c2ccc(Cl)cc2)N1Cc1ccccc1,–,"inconclusive: 35.5 µM [inhibitor, single point] and inconclusive: 22.4 µM [inhibitor, single point]"
Cc1ccc(NC(=O)Cn2c(C)cc(C)c(C#N)c2=O)c(Cl)c1,inactive: -17.6%,–
CCOc1ncnc2c1sc1nc(C)cc(C)c12,inactive: -2.87%,–
CC(=O)c1cc(C#N)c(N2CCCC2)nc1C,inactive: -1.67%,–

Structure (SMILES),"activity, negative = inhibition",Potency
Nc1cc2nsnc2cc1Br,–,active: 11.2 µM
CN(C(=O)CSc1nc2ccc(NC(=O)c3ccc(F)cc3)cc2s1)c1ccccc1,–,"inconclusive: 35.5 µM [inhibitor, single point]"
CCn1ncc(CN2CCCC(C(=O)Nc3cccc(-c4cc5ccccc5[nH]4)c3)C2)c1C (stereo not drawn),–,"inconclusive: 25.1 µM [inhibitor, single point]"
Cc1ccc(-c2csc(N3CCN(S(=O)(=O)c4ccc5c(c4)NC(=O)CO5)CC3)n2)cc1,inactive: -1.75%,–
CCSc1nc2c(c(=O)n1CC)SC(C)C2 (stereo not drawn),–,"inconclusive: 2.24 µM [inhibitor, partial curve]"
O=C(Nc1nc(-c2cccs2)c(C(=O)C(F)(F)F)s1)c1ccccc1,–,"inconclusive: 14.1 µM [inhibitor, partial curve, poor fit]"
O=C(COc1ncnc2scc(-c3ccccc3)c12)NC1CCCc2ccccc21 (stereo not drawn),–,"inconclusive: 6.31 µM [inhibitor, single point]"
CCn1c(=O)n(CC)c2cc(N3CCCC3)c(NC(=O)c3ccccc3Br)cc21,–,"inconclusive: 35.5 µM [inhibitor, partial curve, poor fit]"
Cn1c(CNc2ccc(Cl)cc2)nc2ccccc21,inactive: -33.5%,–
COc1ccc(N(CCCN2C(=O)c3cccc4cccc(c34)C2=O)C(=O)c2cccs2)cc1,inactive: -3.82%,–
COc1ccccc1C1C(C(N)=O)=C(C)Nc2nc(SCc3ccccc3F)nn21 (stereo not drawn),inactive: 15.3%,–
CN(C(=S)NC(=O)c1ccccc1)C1CCCCC1,inactive: 2.73%,–
Cc1ccc(C(C)C)c(OCC(=O)Nc2ccc3c(c2)nc(CCN2CCCCC2)n3C)c1,–,"inconclusive: 35.5 µM [inhibitor, single point]"
COc1ccc(S(=O)(=O)N(C)C)cc1NC(=O)CN1CCN(C(=O)C2CC2)CC1,inactive: -10.7%,–
CC1(C)CC(=O)c2cnn(-c3nc4ccccc4[nH]3)c2C1,inactive: 12.2%,–
COC(=O)c1ccc(S(=O)(=O)N2CCc3ccccc3C2)cc1,–,"inconclusive: 35.5 µM [inhibitor, single point]"
COc1ccc(S(=O)(=O)Nc2ccc(O)c(Sc3nc4ccccc4s3)c2)cc1,–,"inconclusive: 35.5 µM [inhibitor, single point]"
CCc1ccc(NC(=O)CN2C(=O)C(=O)c3ccccc32)cc1,–,"inconclusive: 5.01 µM [inhibitor, full curve]"
C=C1CCC2C(C)(C)[C@H](O)CC[C@@]2(C)[C@@H]1COc1cc(=O)oc2ccccc12 (stereo partly drawn),–,"inconclusive: 15.8 µM [inhibitor, single point]"
COCC(C)NC(=S)NCCc1ccc(Cl)cc1Cl (stereo not drawn),–,"inconclusive: 14.1 µM [inhibitor, single point]"
COCCN(Cc1cc2c(C)cc(C)cc2nc1Cl)C(=O)c1ccccc1F,–,"inconclusive: 0.501 µM [inhibitor, full curve, poor fit]"
CCN(CC)C(=O)[C@H]1C[C@H](CC(=O)NCc2ccco2)C(=O)N2CCc3c([nH]c4ccc(Cl)cc34)[C@]12C,–,"inconclusive: 22.4 µM [inhibitor, single point]"
Cc1ccc(C(=O)NCC(=O)OC(C)C(=O)Nc2ccc(N3CCOCC3)cc2)s1 (stereo not drawn),–,"inconclusive: 35.5 µM [inhibitor, single point]"

Structure (SMILES),"activity, negative = inhibition",Potency
COc1ccc(CCNC(=O)C(C)n2nc(C)c3sc4ccccc4c3c2=O)cc1OC (stereo not drawn),inactive: 28.4%,–
O=C(C1CC1)N(CCc1ccccc1)Cc1nc2ccccc2c(=O)[nH]1,inactive: 3.43%,–
COc1nc(NC2CCCCC2)nc(N2CCCCCC2)n1,–,"inconclusive: 25.1 µM [inhibitor, partial curve, poor fit]"
Cc1ccc(-c2cc(-c3ccccc3)nc(Cl)n2)cc1,–,"inconclusive: 11.2 µM [inhibitor, partial curve, poor fit]"
COc1ccc(-c2nc3c(C#N)c[nH]n3c2NC2CCCCC2)cc1,–,"inconclusive: 12.6 µM [inhibitor, single point]"
COc1ccc(C(=O)Oc2c(Sc3ccc(C)cc3)c(C)nn2C(C)(C)C)c(OC)c1,–,"inconclusive: 35.5 µM [inhibitor, partial curve, poor fit]"
CCCc1nc2c3ccccc3ccn2c1Cc1ccc(OC)cc1C,–,"inconclusive: 35.5 µM [inhibitor, single point]"
Cc1ccc2cc(CCNC(=O)c3c(-c4ccccc4Cl)noc3C)c(=O)[nH]c2c1,–,"inconclusive: 17.8 µM [inhibitor, single point]"
O=C(NCc1cccnc1)c1ccc(COc2ccc3c(c2)CCC3)o1,–,"inconclusive: 35.5 µM [inhibitor, single point]"
O=[N+]([O-])c1cccc(/C=N/Nc2cc(N3CCOCC3)ncn2)c1,inactive: -4.33%,–
NC(=S)N/N=C/c1c(O)ccc2ccccc12,–,"inconclusive: 31.6 µM [inhibitor, partial curve, poor fit]"
COc1ccc(CN(CCC(C)C)S(=O)(=O)c2ccccc2Br)cc1,–,"inconclusive: 35.5 µM [inhibitor, single point]"
O=C(CSc1c2c(nc3ccc(Cl)cc13)CCCC2)N1CCCCC1,–,"inconclusive: 20 µM [inhibitor, single point]"
CCCCC1=CC2=C(c3ccco3)C(=O)C(C)(OC(=O)c3ccc(OC)cc3)C(=O)C2=CN1Cc1ccc2c(c1)OCO2 (stereo not drawn),inactive: -1.47%,–
Cc1ccc(NS(=O)(=O)c2ccc(C(=O)N3CCCC(C(F)(F)F)C3)cc2)cc1 (stereo not drawn),–,"inconclusive: 6.31 µM [inhibitor, single point]"
c1ccc2c(c1)oc1c(NCC3CCCO3)ncnc12 (stereo not drawn),inactive: 0%,–
CCN(C(=O)CN(C)Cc1cccc(Cl)c1Cl)c1c(N)n(Cc2ccccc2)c(=O)[nH]c1=O,–,"inconclusive: 35.5 µM [inhibitor, single point]"
CCn1cc([N+](=O)[O-])c(C(=O)Nc2c(C)nn(Cc3c(F)c(F)c(F)c(F)c3F)c2C)n1,–,"inconclusive: 14.1 µM [inhibitor, partial curve, poor fit]"
CCOC(=O)c1ccc(Nc2nc(=O)c3cccnc3s2)cc1,inactive: 14.5%,–
Cc1ccc(NC(=O)Cc2nnc(SCC(=O)c3ccc(Br)cc3)n2C)cc1,inactive: -26%,–
Cc1ccc(-c2nnc(SCc3ccc(C#N)cc3)n2Cc2ccco2)cc1,–,"inconclusive: 7.94 µM [inhibitor, partial curve]"
CCCc1c(CC)c(=N)c2ccccc2n1C,–,"inconclusive: 12.6 µM [inhibitor, single point]"
